28 compounds from publication PMC11637378, “Optogenetic screening of MCT1 activity implicates a cluster of non-steroidal anti-inflammatory drugs (NSAIDs) as inhibitors of lactate transport” (PLOS ONE, 2024) can be followed below.

In the assay the target is T1, R. norvegicus MCT1 (F360C) (UniProt P36035+P53987, F360C).
T1 sequence (P36035+P53987 with tags, fused parts or gaps P53987:F360C): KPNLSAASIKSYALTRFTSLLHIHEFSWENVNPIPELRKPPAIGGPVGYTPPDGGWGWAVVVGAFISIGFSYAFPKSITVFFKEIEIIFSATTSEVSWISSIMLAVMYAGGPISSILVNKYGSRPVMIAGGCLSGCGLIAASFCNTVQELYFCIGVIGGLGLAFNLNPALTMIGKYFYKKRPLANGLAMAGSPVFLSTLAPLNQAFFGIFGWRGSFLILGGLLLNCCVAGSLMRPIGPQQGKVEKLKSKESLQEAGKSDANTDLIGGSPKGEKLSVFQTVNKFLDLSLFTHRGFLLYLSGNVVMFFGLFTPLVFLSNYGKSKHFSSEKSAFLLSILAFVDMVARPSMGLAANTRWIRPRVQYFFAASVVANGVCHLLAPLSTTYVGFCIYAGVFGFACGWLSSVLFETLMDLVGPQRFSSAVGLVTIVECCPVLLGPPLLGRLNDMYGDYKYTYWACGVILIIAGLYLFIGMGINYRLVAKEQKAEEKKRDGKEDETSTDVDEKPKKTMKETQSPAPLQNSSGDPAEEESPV
The assay is classed as cell-based.

Where two headings read alike, the source gives them in different places.

Turning to `O=C(C1CCCCC1)N1CC(=O)N2CCc3ccccc3C2C1` (centres unmarked) [Praziquantel], the Day1 is recorded as 0.2811, the Day2 is recorded as 0.8925, the Fraction worked out at 0.315 and the Offtarget_sub was found to be 0.1405. The Percent was determined as 66.5468% and the Z.score was -4.641. For the setting “10 μM”, the Fraction is listed as 0.315, the “Percent AZD3965” value was 66.5468% and the Z.score is given as -4.641.
`CS(=O)(=O)c1ccc(C2=C(c3ccccc3)C(=O)OC2)cc1` [Rofecoxib] returned a Day1 of 0.0762, a Day2 of 0.833, a Fraction of 0.09148 and an Offtarget_sub of -0.0691. This compound had a Z-score of -2.341 and a Z.score of -5.058.
Take `Nc1c(CC(=O)O)cccc1C(=O)c1ccc(Br)cc1` [Bromfenac]: the “Percent AZD3965” value was -1.725% and the Z-score was found to be 0.12.
As to `O=C1NC(=O)/C(=C/c2ccc(-c3ccc(F)cc3O)o2)S1` [AS-252424], the Day1 is given as 0.3528 and the Day2 came out at 0.8524. Where the note is “10 μM”, the Fraction stood at 0.4139, the “Percent AZD3965” value was determined as 43.404% and the Z.score is -3.172.
Turning to `Cc1ccc(S(=O)(=O)/C=C/C#N)cc1` [Bay 11-7082], the Day1 was 0.1691, the Day2 worked out at 0.925, the Fraction was 0.1828 and the “Percent AZD3965” value is given as 94.5722%. This compound also yielded a Z.score of -6.39.
`NC(=O)c1ccccc1O` [Salicylamide]: the “Percent AZD3965” value amounted to 4.251% and the Z-score is on record as -0.3221.
In turn, `O=c1cc(O)cc(/C=C/c2ccc(O)c(O)c2)o1` [Hispidin] registered a Day1 of 0.1239, a Day2 of 0.8402, a Fraction of 0.1475 and a Percent of 98.8018%. Besides, the Z.score was -5.56. Where the note is “10 μM”, the Fraction is recorded as 0.1475, the “Percent AZD3965” value worked out at 98.8018% and the Z.score is listed as -5.56.
Take `CCN(CC)C(=O)[C@]1(c2ccccc2)C[C@@H]1CN.Cl` [Milnacipran hydrochloride]: the Day1 is reported as 0.074, the Day2 is 0.8305, the Fraction worked out at 0.0891 and the “Percent AZD3965” value came to 111.097%. This compound displayed a Z.score of -5.08.
In turn, `COc1cc(C(=O)NS(=O)(=O)c2ccccc2C)ccc1Cc1cn(C)c2ccc(NC(=O)OC3CCCC3)cc12` [Zafirlukast] gave a Day1 of 0.2267, a Day2 of 0.8008, a Fraction of 0.2831 and an Offtarget_sub of 0.0814. Further, the “Percent AZD3965” value is 72.7899% and the Z.score is on record as -3.328.
For the compound `O=C(O)/C=C/C=C/c1ccccc1` [JUAREZIC ACID], the Day1 is 0.2901 and the Day2 turned out to be 0.713. Besides, under “10 μM”, the Fraction came out at 0.4069, the “Percent AZD3965” value was determined as 52.4442% and the Z.score is -4.371.
For `O=C(/C=C/c1ccc(O)cc1)c1ccccc1` [4-hydroxychalcone], the Day1 is on record as 0.1213, the Day2 stood at 0.7298, the Fraction worked out at 0.1662 and the Percent worked out at 96.6471%. This compound also had a Z.score of -5.954. Besides, where the note is “10 μM”, the Fraction came to 0.1662, the “Percent AZD3965” value is 96.6471% and the Z.score is reported as -5.954.
As to Erythrosine, the Day1 stood at 0.2221, the Day2 was found to be 0.7974, the Fraction came to 0.2785 and the Offtarget_sub amounted to 0.0608. The Percent came out at 79.5231% and the Z.score was -9.564.
As for `CCCCC1C(=O)N(c2ccccc2)N(c2ccccc2)C1=O` [Phenylbutazone], the “Percent AZD3965” value is 10.1889% and the Z-score is -0.7109.
`C=CC[C@@H]1/C=C(\C)C[C@H](C)C[C@H](OC)[C@H]2O[C@@](O)(C(=O)C(=O)N3CCCC[C@H]3C(=O)O[C@H](/C(C)=C/[C@@H]3CC[C@@H](O)[C@H](OC)C3)[C@H](C)[C@@H](O)CC1=O)[C@H](C)C[C@@H]2OC` [TACROLIMUS] displayed a Day1 of 0.3533 and a Day2 of 0.8731. In addition, where the note is “10 μM”, the Fraction was found to be 0.4047, the “Percent AZD3965” value came to 51.6792% and the Z.score is listed as -3.3785.
Regarding `COc1ccc2c(c1)c(CC(=O)O)c(C)n2Cc1ccc(Cl)cc1` [Lopac-C-1610], the “Percent AZD3965” value is recorded as -0.3223% and the Z-score came to 0.02285.
In the case of `CO[C@H]1O[C@@H]2O[C@@]3(C)CC[C@H]4[C@H](C)CC[C@@H]([C@H]1C)[C@@]24OO3` [Artemether], the Day1 came to 0.2584 and the Day2 is listed as 0.7701. Further, under “10 μM”, the Fraction was 0.3355, the “Percent AZD3965” value amounted to 63.7045% and the Z.score is recorded as -3.201.
For `CCC(Cc1c(I)cc(I)c(N)c1I)C(=O)O` (centres unmarked) [IOPANIC ACID], the Day1 amounted to 0.2411, the Day2 was 0.8091, the Fraction is 0.298 and the “Percent AZD3965” value is recorded as 71.6913%. The compound also came in with a Z.score of -4.687.
`CC1=C(CC(=O)O)c2cc(F)ccc2/C1=C\c1ccc(S(C)(=O)=O)cc1` [Sulindac sulfone]: the “Percent AZD3965” value amounted to 0.4063% and the Z-score is recorded as -0.02714.
In the case of `NCC(=O)Nc1ccc(-n2nc(C(F)(F)F)cc2-c2ccc3c(ccc4ccccc43)c2)cc1` [OSU-03012 (AR-12)], the Day1 was determined as 0.2328, the Day2 is 0.8521, the Fraction was found to be 0.2732 and the “Percent AZD3965” value was determined as 77.508%. Moreover, the Z.score is given as -4.04.
In the case of `COc1ccc(CCN(C)CCCOc2ccc(S(=O)(=O)c3c(C(C)C)c4ccccc4n3C)cc2)cc1OC.O=C(O)C(=O)O` [SR 33805], the “Percent AZD3965” value was 61.5199%.
`Cl.O=S(=O)(c1cccc2c(I)cccc12)N1CCCNCC1` [ML-7, reference compound]: the “Day1 (OD600 after 24 hours non-permissive dark conditions)” value amounted to 0.5245 and the “Day2 (OD600 after additional 24 hours permissive conditions)” value is given as 0.8146. Also, under “10 μM”, the “Fraction (growth in non-permissive phase divided by growth in permissive phase)” value is reported as 0.6439, the “Percent (percent AZD3965 score)” value was 3.417% and the Z-score is on record as -0.2325.
Regarding `O=C1C[C@@H](c2ccc(O)cc2)Oc2cc(O)cc(O)c21` [NARINGENIN], where the note is “10 μM”, the Fraction is 0.3597, the “Percent AZD3965” value came out at 61.2861% and the Z.score is given as -5.108.
`O=C(O)Cc1cc(I)c(Oc2cc(I)c(O)c(I)c2)c(I)c1` [TETRAC] returned a Day1 of 0.1866, a Day2 of 0.8316, a Fraction of 0.2244 and an Offtarget_sub of 0.0463. Further, the Z.score was -4.108. For the setting “10 μM”, the Fraction is listed as 0.2244, the “Percent AZD3965” value is reported as 82.6554% and the Z.score is recorded as -4.108.
As to `O=c1c(O)c(-c2ccc(O)c(O)c2)oc2cc(O)cc(O)c12` [Quercetin (Sophoretin)], the Day1 is on record as 0.2282, the Day2 is 0.838, the Fraction was 0.2723 and the “Percent AZD3965” value was 75.3571%. The same compound returned a Z.score of -3.082.
In turn, `N#Cc1c(O)c2c(-c3ccc(-c4ccccc4O)cc3)csc2[nH]c1=O` [A-769662] gave a Day1 of 0.2581, a Day2 of 0.7937, a Fraction of 0.3252 and a Percent of 67.7008%. Further, the “Percent AZD3965” value is 67.7008% and the Z.score is given as -3.529.
In the case of `O=C(c1ccccc1)c1ccc2n1CCC2C(=O)O` (centres unmarked) [Ketorolac], the “Percent AZD3965” value was -6.212% and the Z-score worked out at 0.2944.
For the compound `CC(=O)Nc1ccc(O)cc1` [Acetaminophen], the “Percent AZD3965” value is listed as -5.341% and the Z-score came out at 0.28.
`C=CC(C1=CC(=O)C=CC1=O)c1ccccc1` (centres unmarked) [DALBERGIONE]: where the note is “10 μM”, the Fraction amounted to 0.4165, the “Percent AZD3965” value stood at 49.2593% and the Z.score is -3.0349.
